These results are taken from article PMC12820563.

Some of the results follow. The list includes weakly bound sequences.

This assay deals with T1, MBP-FoxP3dN (UniProt Q99JB6).
T1 sequence: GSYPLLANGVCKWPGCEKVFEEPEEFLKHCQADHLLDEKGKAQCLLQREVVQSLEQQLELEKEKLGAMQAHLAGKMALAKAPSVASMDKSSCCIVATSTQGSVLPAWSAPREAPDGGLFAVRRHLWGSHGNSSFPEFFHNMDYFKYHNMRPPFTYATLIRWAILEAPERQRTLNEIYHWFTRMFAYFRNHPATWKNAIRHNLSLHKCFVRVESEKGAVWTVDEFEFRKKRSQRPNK
The assay can be described thus: PD-seq (MBP pull-down with sequencing). As to conditions: 20 mM Tris-HCl pH 7.5, 100 mM NaCl, 1.5 mM MgCl2, 0.4 uM protein, 0.1 uM dsDNA library, 30 min, room temperature, amylose pull-down; high values mean tight binding; double strand, one strand shown.
On to “GATGATTGTTCTCCCAGCTGATGAATTCCCCCAGTCGAGTAAACAAATTTTCCTAATCTTTCTGTTCAAGCGCCATCTAC”, for which the binding signal (RPM ratio (pull-down/input)) worked out at 0.148.

For the sequence “GATGATTGTTCTCCCAGCTGATGAATTTAGAAATTCGAGTAAACAAATTTTCCTAATCTTTCTGTTCAAGCGCCATCTAC”, the binding signal (RPM ratio (pull-down/input)) turned out to be 0.524.

For “GATGATTGTTCTCCCAGCTGATGAATTCCGGGCATCGAGTAAACAAATTTTCCTAATCTTTCTGTTCAAGCGCCATCTAC”, the binding signal (RPM ratio (pull-down/input)) turned out to be 0.549.

For “GATGATTGTTCTCCCAGCTGATGAATTACATTTTTCGAGTAAACAAATTTTCCTAATCTTTCTGTTCAAGCGCCATCTAC”, the binding signal (RPM ratio (pull-down/input)) was 0.69.

Consider “GATGATTGTTCTCCCAGCTGATGAATTCCTCGTATCGAGTAAACAAATTTTCCTAATCTTTCTGTTCAAGCGCCATCTAC”, for which the binding signal (RPM ratio (pull-down/input)) was found to be 0.403.

For the sequence “GATGATTGTTCTCCCAGCTGATGAATTCCGTTATTCGAGTAAACAAATTTTCCTAATCTTTCTGTTCAAGCGCCATCTAC”, the binding signal (RPM ratio (pull-down/input)) came to 2.48.

As for “GATGATTGTTCTCCCAGCTGATGAATTTGTCTGTTCGAGTAAACAAATTTTCCTAATCTTTCTGTTCAAGCGCCATCTAC”, the binding signal (RPM ratio (pull-down/input)) turned out to be 3.84.

For the sequence “GATGATTGTTCTCCCAGCTGATGAATTTTAAGGATCGAGTAAACAAATTTTCCTAATCTTTCTGTTCAAGCGCCATCTAC”, the binding signal (RPM ratio (pull-down/input)) is 0.237.

As to “GATGATTGTTCTCCCAGCTGATGAATTCGGAGTTTCGAGTAAACAAATTTTCCTAATCTTTCTGTTCAAGCGCCATCTAC”, the binding signal (RPM ratio (pull-down/input)) is 1.13.

Consider “GATGATTGTTCTCCCAGCTGATGAATTAAGGTACTCGAGTAAACAAATTTTCCTAATCTTTCTGTTCAAGCGCCATCTAC”, for which the binding signal (RPM ratio (pull-down/input)) was determined as 0.521.

In the case of “GATGATTGTTCTCCCAGCTGATGAATTCTCATTTTCGAGTAAACAAATTTTCCTAATCTTTCTGTTCAAGCGCCATCTAC”, the binding signal (RPM ratio (pull-down/input)) stood at 0.447.

As for “GATGATTGTTCTCCCAGCTGATGAATTAACTGTGTCGAGTAAACAAATTTTCCTAATCTTTCTGTTCAAGCGCCATCTAC”, the binding signal (RPM ratio (pull-down/input)) is 0.556.

In the case of “GATGATTGTTCTCCCAGCTGATGAATTGGATCCCTCGAGTAAACAAATTTTCCTAATCTTTCTGTTCAAGCGCCATCTAC”, the binding signal (RPM ratio (pull-down/input)) is 0.245.

With “GATGATTGTTCTCCCAGCTGATGAATTTGCTCCATCGAGTAAACAAATTTTCCTAATCTTTCTGTTCAAGCGCCATCTAC”, the binding signal (RPM ratio (pull-down/input)) was found to be 0.472.

Take “GATGATTGTTCTCCCAGCTGATGAATTAGGTCACTCGAGTAAACAAATTTTCCTAATCTTTCTGTTCAAGCGCCATCTAC”: the binding signal (RPM ratio (pull-down/input)) came out at 0.628.

On to “GATGATTGTTCTCCCAGCTGATGAATTTCACGATTCGAGTAAACAAATTTTCCTAATCTTTCTGTTCAAGCGCCATCTAC”, for which the binding signal (RPM ratio (pull-down/input)) turned out to be 0.263.

For the sequence “GATGATTGTTCTCCCAGCTGATGAATTGCATACGTCGAGTAAACAAATTTTCCTAATCTTTCTGTTCAAGCGCCATCTAC”, the binding signal (RPM ratio (pull-down/input)) is 1.16.

Turning to “GATGATTGTTCTCCCAGCTGATGAATTCGCATGTTCGAGTAAACAAATTTTCCTAATCTTTCTGTTCAAGCGCCATCTAC”, the binding signal (RPM ratio (pull-down/input)) is 1.95.

In the case of “GATGATTGTTCTCCCAGCTGATGAATTCTTACCTTCGAGTAAACAAATTTTCCTAATCTTTCTGTTCAAGCGCCATCTAC”, the binding signal (RPM ratio (pull-down/input)) is 0.238.

On to “GATGATTGTTCTCCCAGCTGATGAATTTTGTCAATCGAGTAAACAAATTTTCCTAATCTTTCTGTTCAAGCGCCATCTAC”, for which the binding signal (RPM ratio (pull-down/input)) came out at 0.939.

“GATGATTGTTCTCCCAGCTGATGAATTCCTAGATTCGAGTAAACAAATTTTCCTAATCTTTCTGTTCAAGCGCCATCTAC”: the binding signal (RPM ratio (pull-down/input)) came to 0.206.

As to “GATGATTGTTCTCCCAGCTGATGAATTAACAATGTCGAGTAAACAAATTTTCCTAATCTTTCTGTTCAAGCGCCATCTAC”, the binding signal (RPM ratio (pull-down/input)) was found to be 0.512.

In the case of “GATGATTGTTCTCCCAGCTGATGAATTAACGCGTTCGAGTAAACAAATTTTCCTAATCTTTCTGTTCAAGCGCCATCTAC”, the binding signal (RPM ratio (pull-down/input)) was 1.52.

For the sequence “GATGATTGTTCTCCCAGCTGATGAATTGATTAAATCGAGTAAACAAATTTTCCTAATCTTTCTGTTCAAGCGCCATCTAC”, the binding signal (RPM ratio (pull-down/input)) turned out to be 0.244.

Consider “GATGATTGTTCTCCCAGCTGATGAATTGGTACCTTCGAGTAAACAAATTTTCCTAATCTTTCTGTTCAAGCGCCATCTAC”, for which the binding signal (RPM ratio (pull-down/input)) was 0.507.

Take “GATGATTGTTCTCCCAGCTGATGAATTGTGTAGCTCGAGTAAACAAATTTTCCTAATCTTTCTGTTCAAGCGCCATCTAC”: the binding signal (RPM ratio (pull-down/input)) was determined as 2.51.

Take “GATGATTGTTCTCCCAGCTGATGAATTATCTATGTCGAGTAAACAAATTTTCCTAATCTTTCTGTTCAAGCGCCATCTAC”: the binding signal (RPM ratio (pull-down/input)) stood at 0.418.

For the sequence “GATGATTGTTCTCCCAGCTGATGAATTGAGCGTGTCGAGTAAACAAATTTTCCTAATCTTTCTGTTCAAGCGCCATCTAC”, the binding signal (RPM ratio (pull-down/input)) was found to be 3.03.

In the case of “GATGATTGTTCTCCCAGCTGATGAATTCCATAGGTCGAGTAAACAAATTTTCCTAATCTTTCTGTTCAAGCGCCATCTAC”, the binding signal (RPM ratio (pull-down/input)) turned out to be 0.268.

With “GATGATTGTTCTCCCAGCTGATGAATTTCGGCAGTCGAGTAAACAAATTTTCCTAATCTTTCTGTTCAAGCGCCATCTAC”, the binding signal (RPM ratio (pull-down/input)) was found to be 0.398.

Take “GATGATTGTTCTCCCAGCTGATGAATTGTACTCCTCGAGTAAACAAATTTTCCTAATCTTTCTGTTCAAGCGCCATCTAC”: the binding signal (RPM ratio (pull-down/input)) was determined as 0.526.
